Holding throughout (type): cell-based, human
The subject of assay [1] is H1299 cells. Kind of assay: FACS detection of second-set engineered DLL3 on the surface of transfected H1299 cells (Example 5). The following applies: H1299 cells transfected with construct; compared to NP247 and wild-type control NP116; FIG. 9B.
Assay [2] has as its system H1299 cells. The experiment in a line: number of copies of anti-DLL3 antibody bound to DLL3 on the cell surface (quantification bead standard curve). The protocol:
Next, a physical number of copies of anti-DLL3 antibody bound to DLL3 expressed on the cell surface was assessed. H1299 cells were seeded into 96 well plate. 24 hours after seeding, H1299 cells were transfected with nanoplasmid vectors comprising NP116 (wild-type control), NP247 (with a single DLL3 epitope in the CD8 scaffold), or NP298 (with two DLL3 epitopes in the CD8 scaffold) via lipofectamine according to the manufacture's protocols. H1299 cells were then stained with fluorescently labeled anti-DLL3 antibodies for FACS analysis. Cells and commercially available beads for epitope quantification were then stained with an anti-DLL3 secondary antibody conjugated to Alexa Fluor® 647 (AF647). H1299 cells were subsequently analyzed on a BD Biosciences FACSAria IIu (FIGS. 10A-10C). The number of epitopes were calculated by comparing the cell's expression to the quantification bead standard curve (FIGS. 10B-10C).
Each of NP247 and NP298 constructs and wild-type DLL3 construct (NP116) was separately introduced to H1299 cells by transfection to analyze the expression of engineered DLL3. […] H1299 cells stably expressing wild-type or engineered DLL3 and commercially available beads for epitope quantification were then stained with an anti-DLL3 secondary antibody conjugated to Alexa Fluor® 647 (AF647). H1299 cells were subsequently analyzed on a BD Biosciences FACSAria IIu. […]

In assay [3] the test system is H1299 cells. The experiment in a line: cell killing assay, CellTiter Glo 2.0 (Example 7). The following applies: treated with anti-DLL3-PBD, 72 hours, compared to NP116, FIG. 13B. The protocol: Next, H1299 cells stably expressing WT or engineered DLL3 were seeded 5,000 cells/well in 96 well plates. 24 hours after seeding, H1299 cells were treated with a titration of either an unconjugated anti-DLL3 antibody or an anti-DLL3 antibody conjugated to a PBD toxin (anti-DLL3-PBD). 72 hours after antibody treatment, cell viability was assessed using the CellTiter Glo 2.0 assay kit and analyzed on a Promega GloMax Navigator.
Background: In ATP-based viability assays light output follows the ATP content of the culture.

“Also recorded” adds a separate entry of the source.

B1: NP298: engineered DLL3 construct, residues 179-254 of DLL3 and a second DLL3 epitope in CD8 scaffold; SEQ ID NO: 41, 48 (protein)
chain: MALPVTALLLPLALLLHAARPEPPAVGTACTRLCRPRSAPSRCGPGLRPCAPLEDECEAPLVCRAGCSPEHGFCEQPGECRCLEGWTGPLCTVPVSTGGEPPAVGTACTRLCRPRSAPSRCGPGLRPCAPLEDECEAPLVCRAGCSPEHGFCEQPGECRCLEGWTGPLCTVPVSTGGTTTPAPRPPTPAPTIASQPLSLRPEACRPAAGGAVHTRGLDFACDFWVLVVVGGVLACYSLLVTVAFIIFWVHMGGGSGGGSAYPYDVPDYAAYPYDVPDYA
B1: in the assay on H1299 cells [1], the “detection level of DLL3 expressed on the cell surface” value is listed as “increased detection level of DLL3 expressed on the cell surface; also recorded: antibody binding capacity can be increased”. Further, the “increase in copy number of anti-DLL3 antibodies compared to cells expressing NP116” value is recorded as 32 fold in the assay with H1299 cells [2] (Example 5, H1299 cells transfected with nanoplasmid vectors, FIG. 10C) and 37 fold in the assay with H1299 cells [2] (Example 7, FIG. 13A). Further, the “loss of viability / susceptibility to cell death of cells expressing the construct” value with H1299 cells [3] is on record as “may be more susceptible to cell death; also recorded: substantial loss of viability”.
